Holding throughout (assay): FRET or BRET; microscopic FRET in living CHO cells, ECFP donor and EYFP acceptor, 50 ng of each construct per 100 000 cells, 24 h after transfection, HEPES buffered ringer solution; FRET index (FI) = FRET efficiency x area with FRET; FI<51 no interaction, 51-99 weak or false positive, >=100 interaction; at least 30 cells per sample
Assay [1] deals with T1, endoglin G52V, EYFP-tagged (with an ECFP-tagged copy for the homodimer) (human) (UniProt P17813).
T1 sequence: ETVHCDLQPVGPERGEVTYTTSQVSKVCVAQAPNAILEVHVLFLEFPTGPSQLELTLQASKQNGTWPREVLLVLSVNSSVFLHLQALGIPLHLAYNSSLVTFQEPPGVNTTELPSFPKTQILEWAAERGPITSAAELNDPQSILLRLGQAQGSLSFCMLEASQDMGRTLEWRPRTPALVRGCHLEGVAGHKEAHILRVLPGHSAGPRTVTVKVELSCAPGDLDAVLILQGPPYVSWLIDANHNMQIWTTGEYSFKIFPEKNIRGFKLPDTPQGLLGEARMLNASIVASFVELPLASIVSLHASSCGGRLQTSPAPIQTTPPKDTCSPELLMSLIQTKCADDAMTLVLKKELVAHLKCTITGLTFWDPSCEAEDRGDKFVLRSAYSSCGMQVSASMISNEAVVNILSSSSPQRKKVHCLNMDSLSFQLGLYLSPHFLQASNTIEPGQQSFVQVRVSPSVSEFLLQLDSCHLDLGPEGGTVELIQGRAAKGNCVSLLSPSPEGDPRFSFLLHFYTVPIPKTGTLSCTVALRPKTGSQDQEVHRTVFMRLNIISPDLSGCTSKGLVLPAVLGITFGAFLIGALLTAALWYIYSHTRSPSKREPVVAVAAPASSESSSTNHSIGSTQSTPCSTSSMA

By UniProt entry, the sequences of proteins in these tests, tags left out. Residues count along the entry.
UniProt P37023, residues 22-503: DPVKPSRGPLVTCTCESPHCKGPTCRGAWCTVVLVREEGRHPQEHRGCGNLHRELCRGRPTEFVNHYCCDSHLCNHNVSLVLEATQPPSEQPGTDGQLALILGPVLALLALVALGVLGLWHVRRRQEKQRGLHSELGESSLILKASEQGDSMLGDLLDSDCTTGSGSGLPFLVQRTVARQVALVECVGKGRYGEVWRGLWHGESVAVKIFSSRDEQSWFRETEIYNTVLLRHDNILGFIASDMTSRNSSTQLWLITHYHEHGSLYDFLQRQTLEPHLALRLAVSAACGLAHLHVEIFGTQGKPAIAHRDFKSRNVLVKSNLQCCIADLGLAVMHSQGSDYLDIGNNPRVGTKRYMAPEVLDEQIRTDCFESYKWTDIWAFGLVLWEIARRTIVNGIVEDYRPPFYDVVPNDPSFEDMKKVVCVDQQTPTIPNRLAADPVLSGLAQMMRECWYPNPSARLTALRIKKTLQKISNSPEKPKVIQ

The target of assay [2] is T2, endoglin S480C, EYFP-tagged (human, UniProt P17813 26-658, S480C).
T2 construct: endoglin (CD105), human, missense mutant S480C (found in a Scottish HHT family); site-directed mutagenesis on pCMV5-endoglin wild type, moved into pEYFP-N1; also called mutant S480C; source: CHO cells, transiently co-transfected (50 ng of each construct per 100 000 cells), in living cells; not shown: EYFP, C-terminal, kept
T2 sequence (looked up): T1 sequence with V27G, S455C

Assay [3] addresses T1, endoglin G52V, EYFP-tagged (with an ECFP-tagged copy for the homodimer) (human). The source holds these as a separate data set.
The target of assay [4] is T3, endoglin wild-type, EYFP- or ECFP-tagged (human, UniProt P17813 26-658).
T3 construct: endoglin (CD105), human, wild type; EYFP-tagged with the ECFP-tagged receptors and with soluble ECFP; ECFP-tagged with the EYFP-tagged mutants; both versions together for the homodimer; also called endoglin^wt-EYFP; endoglin^wt-ECFP; source: CHO cells, transiently co-transfected (50 ng of each construct per 100 000 cells), in living cells; not shown: EYFP (acceptor) or ECFP (donor), C-terminal, …
T3 sequence (looked up): T1 sequence with V27G

Changes are numbered by the printed parent chain. Read-outs that look alike come from different tables or passages of the source. Results are given in words; binding and its absence hold for the method and conditions named. In cells and extracts the contact can be indirect. Where a sequence is shown, tags or fusion partners need not be part of it.

With “ALK1, ECFP- or EYFP-tagged (from UniProt P37023 22-503) (receptor)”, the binding entry in assay [1] and in assay [2] was “no binding” each time.

B1: integrin-alpha-6-ECFP (receptor, UniProt P23229 24-1130)
chain: FNLDTREDNVIRKYGDPGSLFGFSLAMHWQLQPEDKRLLLVGAPRAEALPLQRANRTGGLYSCDITARGPCTRIEFDNDADPTSESKEDQWMGVTVQSQGPGGKVVTCAHRYEKRQHVNTKQESRDIFGRCYVLSQNLRIEDDMDGGDWSFCDGRLRGHEKFGSCQQGVAATFTKDFHYIVFGAPGTYNWKGIVRVEQKNNTFFDMNIFEDGPYEVGGETEHDESLVPVPANSYLGLLFLTSVSYTDPDQFVYKTRPPREQPDTFPDVMMNSYLGFSLDSGKGIVSKDEITFVSGAPRANHSGAVVLLKRDMKSAHLLPEHIFDGEGLASSFGYDVAVVDLNKDGWQDIVIGAPQYFDRDGEVGGAVYVYMNQQGRWNNVKPIRLNGTKDSMFGIAVKNIGDINQDGYPDIAVGAPYDDLGKVFIYHGSANGINTKPTQVLKGISPYFGYSIAGNMDLDRNSYPDVAVGSLSDSVTIFRSRPVINIQKTITVTPNRIDLRQKTACGAPSGICLQVKSCFEYTANPAGYNPSISIVGTLEAEKERRKSGLSSRVQFRNQGSEPKYTQELTLKRQKQKVCMEETLWLQDNIRDKLRPIPITASVEIQEPSSRRRVNSLPEVLPILNSDEPKTAHIDVHFLKEGCGDDNVCNSNLKLEYKFCTREGNQDKFSYLPIQKGVPELVLKDQKDIALEITVTNSPSNPRNPTKDGDDAHEAKLIATFPDTLTYSAYRELRAFPEKQLSCVANQNGSQADCELGNPFKRNSNVTFYLVLSTTEVTFDTPDLDINLKLETTSNQDNLAPITAKAKVVIELLLSVSGVAKPSQVYFGGTVVGEQAMKSEDEVGSLIEYEFRVINLGKPLTNLGTATLNIQWPKEISNGKWLLYLVKVESKGLEKVTCEPQKEINSLNLTESHNSRKKREITEKQIDDNRKFSLFAERKYQTLNCSVNVNCVNIRCPLRGLDSKASLILRSRLWNSTFLEEYSKLNYLDILMRAFIDVTAAAENIRLPNAGTQVRVTVFPSKTVAQYSGVPWWIILVAILAGILMLALLVFILWKCGFFKRSRYDDSVPRYHAVRIRKEEREIKDEKYIDNLEKKQWITKWNENESYS
With B1, the binding result in assay [3] and in assay [4] was “no binding” each time.

These data come from publication PMC4117486, “Investigation of Endoglin Wild-Type and Missense Mutant Protein Heterodimerisation Using Fluorescence Microscopy Based IF, BiFC and FRET Analyses” (PLoS ONE, 2014).
